Results are given in words; binding and its absence hold for the method and conditions named. Some entries that bind do so weakly or less than the wild type.

Amino acid sequences for entries named in this document (tags omitted). A change or cut given only in a name is not applied to a line headed by its entry.
UniProt O60884: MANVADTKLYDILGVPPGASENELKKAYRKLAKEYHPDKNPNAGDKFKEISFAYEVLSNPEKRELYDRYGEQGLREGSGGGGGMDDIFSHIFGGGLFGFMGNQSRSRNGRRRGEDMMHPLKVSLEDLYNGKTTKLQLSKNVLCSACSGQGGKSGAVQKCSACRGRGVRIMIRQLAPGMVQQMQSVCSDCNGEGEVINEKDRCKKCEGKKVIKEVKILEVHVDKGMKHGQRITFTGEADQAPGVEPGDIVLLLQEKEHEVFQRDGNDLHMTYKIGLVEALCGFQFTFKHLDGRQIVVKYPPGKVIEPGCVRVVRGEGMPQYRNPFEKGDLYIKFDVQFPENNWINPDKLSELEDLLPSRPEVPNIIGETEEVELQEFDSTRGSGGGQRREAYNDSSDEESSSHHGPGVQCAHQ
UniProt P11142: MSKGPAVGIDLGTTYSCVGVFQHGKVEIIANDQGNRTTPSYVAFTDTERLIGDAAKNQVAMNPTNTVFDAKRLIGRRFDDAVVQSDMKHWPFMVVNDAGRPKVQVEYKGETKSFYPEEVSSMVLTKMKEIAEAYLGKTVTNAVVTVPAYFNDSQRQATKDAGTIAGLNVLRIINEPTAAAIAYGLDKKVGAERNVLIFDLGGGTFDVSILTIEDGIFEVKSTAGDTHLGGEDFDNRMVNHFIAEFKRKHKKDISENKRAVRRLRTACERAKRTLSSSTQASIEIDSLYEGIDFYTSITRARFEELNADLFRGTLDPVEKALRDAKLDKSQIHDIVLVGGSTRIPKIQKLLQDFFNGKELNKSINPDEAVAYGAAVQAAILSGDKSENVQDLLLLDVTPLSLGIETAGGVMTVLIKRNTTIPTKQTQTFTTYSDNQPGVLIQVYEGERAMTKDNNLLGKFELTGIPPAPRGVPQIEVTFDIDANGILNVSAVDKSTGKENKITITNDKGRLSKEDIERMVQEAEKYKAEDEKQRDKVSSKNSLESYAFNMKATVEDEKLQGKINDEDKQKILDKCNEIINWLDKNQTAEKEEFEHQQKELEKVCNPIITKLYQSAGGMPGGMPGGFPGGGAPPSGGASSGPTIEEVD
UniProt P13569: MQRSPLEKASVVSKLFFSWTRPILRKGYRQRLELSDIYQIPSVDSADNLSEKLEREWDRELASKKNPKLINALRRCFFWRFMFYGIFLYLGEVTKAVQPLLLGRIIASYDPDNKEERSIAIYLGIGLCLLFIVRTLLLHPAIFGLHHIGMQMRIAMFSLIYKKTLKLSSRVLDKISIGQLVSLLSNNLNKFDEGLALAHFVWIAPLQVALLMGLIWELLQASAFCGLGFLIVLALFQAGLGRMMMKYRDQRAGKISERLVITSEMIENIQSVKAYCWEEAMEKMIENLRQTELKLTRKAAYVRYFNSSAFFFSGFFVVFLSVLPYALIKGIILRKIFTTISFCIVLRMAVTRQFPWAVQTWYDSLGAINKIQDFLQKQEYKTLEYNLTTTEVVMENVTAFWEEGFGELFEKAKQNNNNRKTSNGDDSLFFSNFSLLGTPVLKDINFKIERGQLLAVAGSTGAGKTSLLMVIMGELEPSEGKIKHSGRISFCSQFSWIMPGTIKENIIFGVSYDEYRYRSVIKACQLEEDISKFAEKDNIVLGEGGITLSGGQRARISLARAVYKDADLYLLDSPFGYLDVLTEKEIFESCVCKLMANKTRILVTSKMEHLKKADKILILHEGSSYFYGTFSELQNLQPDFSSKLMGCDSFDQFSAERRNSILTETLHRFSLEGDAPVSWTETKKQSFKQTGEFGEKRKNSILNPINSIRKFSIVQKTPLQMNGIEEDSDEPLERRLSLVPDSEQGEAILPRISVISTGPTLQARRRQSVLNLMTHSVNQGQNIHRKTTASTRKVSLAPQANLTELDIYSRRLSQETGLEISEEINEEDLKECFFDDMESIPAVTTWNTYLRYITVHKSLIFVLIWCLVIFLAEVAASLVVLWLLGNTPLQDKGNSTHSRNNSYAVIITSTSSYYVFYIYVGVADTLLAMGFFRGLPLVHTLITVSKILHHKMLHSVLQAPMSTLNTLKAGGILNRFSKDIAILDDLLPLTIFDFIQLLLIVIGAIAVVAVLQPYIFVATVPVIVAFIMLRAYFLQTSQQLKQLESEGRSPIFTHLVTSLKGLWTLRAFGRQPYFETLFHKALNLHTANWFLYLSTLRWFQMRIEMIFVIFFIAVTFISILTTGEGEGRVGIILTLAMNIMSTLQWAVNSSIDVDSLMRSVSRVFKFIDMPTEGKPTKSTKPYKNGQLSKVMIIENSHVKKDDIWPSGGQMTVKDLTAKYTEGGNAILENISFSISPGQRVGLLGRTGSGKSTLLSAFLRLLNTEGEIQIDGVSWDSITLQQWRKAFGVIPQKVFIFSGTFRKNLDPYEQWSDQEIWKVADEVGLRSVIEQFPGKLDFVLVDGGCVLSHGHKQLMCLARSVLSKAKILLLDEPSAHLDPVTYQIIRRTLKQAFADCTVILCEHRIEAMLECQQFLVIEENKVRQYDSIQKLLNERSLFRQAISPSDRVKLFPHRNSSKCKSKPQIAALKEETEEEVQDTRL

Assay [1] has as its target DNAJA2 (DJA2), His-tagged (UniProt O60884). In words: ELISA; competition: 1 μM chaperone mixed with soluble peptide (titrated up to 100 μM, or fixed 100 μM in the screens) and bound to immobilised 1097-L; Kd of the competing peptide from linearised competition curves; both purified.
For assay [2], the target named is DNAJA1 (DJA1), His-tagged (UniProt P31689). Described as above.
In assay [3] the target is HSC70 (HSPA8), His-tagged (UniProt P11142). Described as above.
Assay [4] has the same target. In words: ELISA; competition: NBD1 immobilised on streptavidin plates, incubated at 30 °C, 1 μM HSC70 bound with ATP in the presence of soluble competitor peptide; both purified. For orientation: ELISA stands for enzyme-linked immunosorbent assay.

For QKVFIFSGT (peptide, UniProt P13569 1291-1299) [CFTR peptide 1295-S], the binding result in assay [1] is recorded as “binds”. DKILILHEG (peptide, UniProt P13569 614-622) [CFTR peptide 618-S]: the binding entry in assay [1] and in assay [2] was “binds” in each case. With HRIEAMLEC (peptide, UniProt P13569 1402-1410) [CFTR peptide 1406-S], in assay [3], the binding result is recorded as “binds”. With FGVIPQKVFIFSGTF (peptide, UniProt P13569 1286-1300) [CFTR peptide 1293-L, soluble unmodified], the binding result in assay [1] and in assay [2] was “no binding (tested: 100 μM)” in each case. As for GRISFCSQFSWIMPG (peptide, UniProt P13569 486-500) [CFTR peptide 493-L, soluble unmodified], the binding entry in assay [1], in assay [2] and in assay [3] was “no binding (tested: 100 μM)” in each case. As for KIKHSGRISFCSQFS (peptide, UniProt P13569 481-495) [CFTR peptide 488-L, soluble unmodified], the binding result in assay [1], in assay [2] and in assay [3] was “no binding (tested: 100 μM)” in each case. As for EDSDEPLERRLSLVP (peptide, UniProt P13569 726-740) [CFTR peptide 733-L, soluble unmodified], the binding entry was “no binding (tested: up to 100 μM)” in assay [3] and “no binding” in assay [4].

As to EIFESCVCK (peptide, UniProt P13569 585-593) [CFTR peptide 589-S], the binding entry in assay [1] is listed as “binds”. As for ILCEHRIEA (peptide, UniProt P13569 1398-1406) [CFTR peptide 1402-S], in assay [3], the binding entry is listed as “binds”. On to DLYLLDSPF (peptide, UniProt P13569 567-575) [CFTR peptide 571-S], for which the binding result in assay [1] is reported as “binds”; in assay [2], “no binding (tested: 100 μM)”; in assay [3], “no binding (tested: 100 μM)”. Consider SCVCKLMAN (peptide, UniProt P13569 589-597) [CFTR peptide 593-S], for which, in assay [2], the binding result is “binds”.

Regarding QAFADCTVI (peptide, UniProt P13569 1390-1398) [CFTR peptide 1394-S], the binding result in assay [1], in assay [2] and in assay [3] was “binds” each time.

Source of the values: article PMC7060200, “Selective Binding of HSC70 and its Co-Chaperones to Structural Hotspots on CFTR” (Scientific Reports, 2020).
